From the supplement of paper PMC3334620
Whole data set: some 33,000 sequences, median “E-score (-0.5 to 0.5)” near -0.035, cut for the highest 2% near 0.35. The list shows a part of the results.

molecular target: T1, Pdr3 (UniProt P33200); assay: PBM E-score (8-mer binding enrichment) (E-score (-0.5 to 0.5)); higher = stronger / more preferred TF binding; most listed sequences are background and not binding sites; details: protein concentration: 200 nM; construct: GST-full length
T1 sequence: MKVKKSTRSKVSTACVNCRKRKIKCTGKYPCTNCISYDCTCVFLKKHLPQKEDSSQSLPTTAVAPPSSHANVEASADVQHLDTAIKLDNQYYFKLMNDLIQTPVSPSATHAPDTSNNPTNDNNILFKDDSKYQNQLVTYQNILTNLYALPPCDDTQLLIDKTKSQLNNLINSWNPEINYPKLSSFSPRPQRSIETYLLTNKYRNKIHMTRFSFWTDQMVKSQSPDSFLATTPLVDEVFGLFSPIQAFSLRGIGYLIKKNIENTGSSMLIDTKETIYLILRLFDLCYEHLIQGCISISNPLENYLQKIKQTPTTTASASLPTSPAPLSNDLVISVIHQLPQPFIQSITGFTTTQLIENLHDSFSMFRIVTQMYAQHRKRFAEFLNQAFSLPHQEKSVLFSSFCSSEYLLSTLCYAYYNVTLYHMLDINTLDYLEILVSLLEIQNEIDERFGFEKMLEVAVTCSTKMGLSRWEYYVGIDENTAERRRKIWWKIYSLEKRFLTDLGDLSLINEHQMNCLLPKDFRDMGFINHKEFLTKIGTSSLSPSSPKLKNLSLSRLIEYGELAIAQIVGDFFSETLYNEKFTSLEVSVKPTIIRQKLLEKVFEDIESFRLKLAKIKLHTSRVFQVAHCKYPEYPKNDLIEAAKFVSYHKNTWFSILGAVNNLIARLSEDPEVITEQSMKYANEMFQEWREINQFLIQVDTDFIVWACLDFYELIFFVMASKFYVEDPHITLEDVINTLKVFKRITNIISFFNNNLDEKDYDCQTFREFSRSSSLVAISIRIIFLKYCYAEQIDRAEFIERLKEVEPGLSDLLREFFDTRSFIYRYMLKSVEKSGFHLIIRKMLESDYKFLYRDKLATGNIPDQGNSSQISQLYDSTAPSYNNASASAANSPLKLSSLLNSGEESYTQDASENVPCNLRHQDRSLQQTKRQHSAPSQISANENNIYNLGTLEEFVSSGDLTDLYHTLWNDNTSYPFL
In short: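 GST-tagged yeast TFs (full-length or DNA-binding domain) were made by PURExpress in vitro transcription/translation and applied at about 100-200 nM to universal all-10-mer Agilent arrays. The arrays were made double-stranded by primer extension, on fresh or once-stripped slides. Bound protein was detected with fluorescent anti-GST, and scans were normalised with masliner. Each ungapped eight-base word, pooled with its reverse complement, received an E-score (modified Wilcoxon-Mann-Whitney statistic) from the Universal PBM Analysis Suite.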

| Sequence | PBM E-score |
| --- | --- |
| ATTGAGCA | -0.0462 |
| AACCTAGC | 0.0265 |
| CCGTTGGA | 0.164 |
| AGAGAGAG | -0.17 |
| ATAACCCA | -0.0453 |
| GATTGTCA | 0.00555 |
| TCCGACGA | 0.308 |
| CAATTCCC | 0.133 |
| CATTGCAC | -0.0987 |
| TGCGTCAA | -0.106 |
| ACATTAAT | -0.0704 |
| CTTCAATC | 0.0103 |
| CGGAGGGC | 0.152 |
| CGCTGGAC | -0.075 |
| AGTTTCAC | -0.186 |
| CAGTTGGG | -0.234 |
| ATAATCGA | -0.0434 |
| AGAGTGGG | -0.0517 |
| ACTTCCGC | 0.385 |
| CAGTTCCC | 0.342 |
| ACGGCTGC | 0.0794 |
| CTCAGGAG | -0.215 |
| CAGACTAG | -0.363 |
| CCATCGAA | -0.0409 |
| CACCAGTG | -0.228 |

| Sequence | PBM E-score |
| --- | --- |
| ACATGACT | -0.285 |
| CGCAGTCA | -0.178 |
| ACCTGTGG | -0.145 |
| CTATTGCA | -0.00711 |
| ACGCATAC | -0.183 |
| ACCGTCGC | 0.291 |
| GACTATTA | -0.135 |
| TTTAAAAA | -0.0414 |
| CATGTAGG | 0.074 |
| ATGGATAA | 0.0866 |
| AGGGAATC | 0.00236 |
| ATAACGAT | -0.0842 |
| ATGGCAGC | -0.0926 |
| AGGAAAAC | 0.0846 |
| CTCACTGC | -0.163 |
| CACGGAGG | 0.26 |
| CATACGGG | 0.0966 |
| CAAGTATA | -0.211 |
| AGGGAAGA | -0.238 |
| AGCCGTCG | 0.1 |
| AAATACTG | -0.0815 |
| ACTGCGCG | 0.0744 |
| AGGTGAGA | -0.0387 |
| CTAGTACA | -0.0998 |
| GGCTATTA | -0.102 |

| Sequence | PBM E-score |
| --- | --- |
| AGCTTTCC | 0.202 |
| AGAGCCGA | 0.139 |
| ATCCGAAC | 0.316 |
| ACCACGAA | -0.101 |
| ACGTGATG | -0.198 |
| AAACAGCG | 0.0751 |
| GTGGACGA | -0.0123 |
| CGTACCAA | 0.0303 |
| CTCTGTGA | -0.234 |
| AGGAGACC | -0.137 |
| CGTGTGCC | -0.0954 |
| GCAGCCCC | 0.202 |
| ATGGCGCG | 0.126 |
| CCGTGCGC | 0.286 |
| AACGTCGG | 0.0976 |
| ATAGCTTA | -0.0418 |
| CATGATGC | -0.0779 |
| ATGGCTAG | -0.19 |
| AGATGCAT | -0.0177 |
| CAACTCAG | -0.179 |
| ACCTTACG | -0.0126 |
| GGATATTA | 0.216 |
| CACGCGGG | 0.0841 |
| CGAGGCTC | -0.0559 |
| CTAGCGGA | 0.182 |

| Sequence | PBM E-score |
| --- | --- |
| GTAAACCA | 0.0021 |
| ATTCGTAG | -0.172 |
| CTCCCCAC | -0.1 |
| AGTAATGC | 0.0152 |
| AACCGAGA | 0.155 |
| ATCCTCTA | -0.111 |
| GGTAAGAA | -0.155 |
| ATTTTCAG | 0.0218 |
| TCGACAAA | 0.131 |
| GCTAGCCC | -0.209 |
| CATATCAA | 0.0688 |
| GGCCCCAA | -0.0586 |
| CGCTAGGC | -0.135 |
| AAGATAGA | -0.184 |
| CAGGTATA | -0.149 |
| ACTTGCGG | 0.0614 |
| ACCAGCTG | -0.149 |
| TACGTACA | -0.179 |
| AAGTCAGG | -0.117 |
| CCTTATCG | 0.0198 |
| GCTTCGCC | -0.18 |
| AGGTACGC | 0.0437 |
| AGCCGAAT | 0.234 |
| AACGCTGG | 0.0348 |
| ACGTATTC | 0.0428 |

| Sequence | PBM E-score |
| --- | --- |
| CCATAGGA | -0.22 |
| TCCAGGAA | -0.0386 |
| AAATTCAG | 0.0296 |
| CACCCAAA | 0.0157 |
| ACCAATAA | -0.0282 |
| CTGCGTAA | -0.211 |
| CTTTTGCA | -0.194 |
| TCCCCTAA | -0.0508 |
| TCGCAAGA | -0.238 |
| CTTGACGC | -0.0608 |
| GTCGGAGA | 0.173 |
| ACTGCTGC | -0.00041 |
| ATCCAGAG | 0.0157 |
| GTGCAAAA | -0.168 |
| AGTCAGCG | -0.192 |
| GAACCACC | 0.155 |
| CAGCTCCA | -0.0374 |
| AATACAAG | 0.133 |
| CCGCCCCC | 0.0913 |
| CTCGAAAC | -0.00842 |
| CAAACAGG | -0.112 |
| CAGCGGGC | 0.0194 |
| CTGTGGGA | -0.133 |
| GCGATAGC | -0.134 |
| TAGAGAAA | -0.0506 |

| Sequence | PBM E-score |
| --- | --- |
| CTAATTTC | 0.173 |
| CAAATACA | -0.11 |
| GCTTCATA | 0.101 |
| AAGCAAAA | -0.0927 |
| CACACGGG | 0.148 |
| GGGACTCA | -0.205 |
| TCGCACGA | -0.0634 |
| CAGATTCG | -0.0961 |
| CCAGACCC | -0.036 |
| ACCAGATG | -0.102 |
| CCGAGGGA | 0.173 |
| CGGGCCCC | 0.265 |
| GGTGACAC | 0.0232 |
| AGGCGCCA | 0.0712 |
| AAAAACTT | -0.241 |
| CCTGCTCC | 0.0627 |
| AATCATGA | 0.0638 |
| TCAAGACA | -0.0323 |
| AGTTTGGC | -0.0217 |
| AATAAAAG | -0.0835 |
| CCAAGTCA | -0.0909 |
| GCCGCGGC | 0.484 |
| AACGCACA | 0.0807 |
| ATCATGGA | -0.156 |
| CGAGAAAG | 0.0361 |

| Sequence | PBM E-score |
| --- | --- |
| AAGTTTGC | -0.00571 |
| CGAGCAGA | -0.0147 |
| AACTCGTA | -0.111 |
| CGCTCTGC | 0.0417 |
| ATTTCCTC | 0.154 |
| CATAGCGG | 0.128 |
| CCTCCCCG | 0.207 |
| TAACCGCA | 0.0667 |
| AGGAATTA | -0.091 |
| CGATCAAA | -0.0395 |
| ATGCTTGG | -0.295 |
| CTACGAGA | -0.0976 |
| ATCGATCC | 0.101 |
| CATGCGCG | 0.127 |
| AAGAAGTC | -0.00838 |
| AGAAGAGA | -0.233 |
| ATTTTTCA | 0.0666 |
| GCGACCGA | 0.0546 |
| AACTTCCC | 0.0171 |
| GGGTTAAA | 0.0457 |
| AATGGAGC | -0.0307 |
| GGTCCGAC | 0.269 |
